The text below walks through data of the supplement of paper PMC4604168 (melanoma cell lines).

This is one part of the list. Repeats are few or missing, and single values can be far off.
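Note: cells treated in 1,536-well plates, then fixed and DAPI-stained, with nuclei counted from automated high-throughput microscope images.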

For the experiment, the system named is SkMel30. Briefly: cell count relative to DMSO control; melanoma cells; higher = more viable cells. As to conditions: library dose: standard library concentration; 72 h.
`N#CC[C@H](C1CCCC1)n1cc(-c2ncnc3[nH]ccc23)cn1` [ruxolitinib] + C[C@@H]1CCN(C(=O)CC#N)C[C@@H]1N(C)c1ncnc2[nH]ccc12 [CP690550] (first compound 5 µM, partner dose 5 µM) displayed a cell count of 130%. Under `CC[C@]1(O)C[C@H]2CN(CCc3c([nH]c4ccccc34)[C@@](C(=O)OC)(c3cc4c(cc3OC)N(C=O)[C@H]3[C@@](O)(C(=O)OC)[C@H](OC(C)=O)[C@]5(CC)C=CCN6CC[C@]43[C@@H]65)C2)C1` [vincristine] + CN(C)S(=O)(=O)c1ccc2c(c1)/C(=C/c1cc3c([nH]1)CCCC3)C(=O)N2 [SU6656] (first compound 0.0005 µM, partner dose 2 µM) stands 49.8%. `Cc1cc(Nc2cc(N3CCN(C)CC3)nc(Sc3ccc(NC(=O)C4CC4)cc3)n2)n[nH]1` [Tozasertib] + Cc1cc(N2CCOCC2)cc2[nH]c(-c3c(NC[C@@H](O)c4cccc(Cl)c4)cc[nH]c3=O)nc12 [BMS536924] (first compound 0.03 µM, partner dose 1 µM) showed a cell count of 89.1%. As to `N#CC[C@H](C1CCCC1)n1cc(-c2ncnc3[nH]ccc23)cn1` [ruxolitinib] + Cn1c(Nc2ccc(C(F)(F)F)cc2)nc2cc(Oc3ccnc(-c4ncc(C(F)(F)F)[nH]4)c3)ccc21 [CHIR265] (first compound 5 µM, partner dose 0.4 µM), the cell count worked out at 47.3%. Take `CC[C@]1(O)C[C@H]2CN(CCc3c([nH]c4ccccc34)[C@@](C(=O)OC)(c3cc4c(cc3OC)N(C=O)[C@H]3[C@@](O)(C(=O)OC)[C@H](OC(C)=O)[C@]5(CC)C=CCN6CC[C@]43[C@@H]65)C2)C1` [vincristine] + Cc1ccc(NC(=O)c2cccc(N(C)C)c2)cc1NC(=O)c1ccc(O)cc1 [ZM336372] (first compound 0.0005 µM, partner dose 10 µM): the cell count came to 67.3%.
